The source gives no read counts; variants with many changes may rest on few reads.

B1: LINE1-mini (parent)
chain: GGCAGAGCUCAACACAGCGUGGCAAAGUGGCUGUGGCUAGACUGCC

In this series the parent is B1. The series can be described thus: self-cleavage, relative activity (ratio to wild type); higher = more cleavage; in vitro, sequencing; the parent is a self-cleaving ribozyme.
For GGCAGAGCUCAGCACACCGUGGCAAAGUGGCUGUGGCUAGACUGUC [A12G G17C C45U], the self-cleavage is 0.01. In the case of GGCAGAGCUCAGCACAGCGGGACAAAGCGGCUGUGGCCAGACUGCC [A12G U20G G22A U28C U38C], the self-cleavage was determined as 0.01. Consider GGCAGAGCUCAGCACACCGUGGCAAAGUGGCUGUGGGUAGACUGCU [A12G G17C C37G C46U], for which the self-cleavage is 0. Regarding GGCAGAGCUCAGCACAGCGUGGCAAAGGGACUGUGGAUAGACUGCC [A12G U28G G30A C37A], the self-cleavage amounted to 0.13.

Regarding GGCAGAGCUCAGCACAGCGUGGCAAAGUGGCUGUGACUGGACUGCC [A12G G36A A39G], the self-cleavage is 0.03. As for GGCAGAGCUCAGCACAGCGUGGCAAAGUGGCUGUUGCUAGACUGAC [A12G G35U C45A], the self-cleavage was 0.04.

Turning to GGCAGAGCUCAGCACAGCGUCGCAAAUUGGCUGUGGCUAGACUGCC [A12G G21C G27U], the self-cleavage came out at 0.01. On to GGCAGAGCUCAGCACAGCGUGGCAAAGUGGCUGUUGUCAAACUGAC [A12G G35U C37U U38C G40A C45A], for which the self-cleavage was 0. As for GGCAGAGCUCAGCACAGCGUGGCAAAGUGGCUGAGGCUAGAUUGCC [A12G U34A C42U], the self-cleavage was 0.19. In the case of GGCAGAGCUCAGCACAGCAUGGCAAAGUGGCUGUGGGUAGACUGCC [A12G G19A C37G], the self-cleavage was determined as 0.03. GGCAGAGCUCAGCACAGCGUGGCAAAGUCGCUGUGGCUAGCCUGCC [A12G G29C A41C]: the self-cleavage is 0.04. Take GGCAGAGCUCAGCACAGCUUGGCAAAGUUGCUGUGUCUAGACUGCC [A12G G19U G29U G36U]: the self-cleavage was 0.06. For the variant GGCAGAGCUCAGCACAGCAUGGCAAAGUUGCUGUGGCCAGACUGCC [A12G G19A G29U U38C], the self-cleavage is 0.15.

Take GGCAGAGCUCAGCACAGCGUGGUAAAGUGGCUCUGGCUAGACUGCC [A12G C23U G33C]: the self-cleavage stood at 0.04. The figure for GGCAGAGCUCAGCACAUAGUGGCAAAGUGGCUGUGGCUAGACUGCC [A12G G17U C18A] is 0.05; for GGCAGAGCUCAUCCCAGCGUGGCAAAGCGGCUGUGGCUAGACUGCC [A12U A14C U28C] it is 0.02. The figure for GGCAGAGCUCAGCACAGCGUGGCAAAGUGGCUGUGGUUAUACUGCC [A12G C37U G40U] is 0.1. The figure for GGCAGAGCUCAGCACAGCGUGGCAAAGUGGCUUUGGCUAUACUGCC [A12G G33U G40U] is 0.06. In the case of GGCAGAGCUCAUCUCAGGGUGGCAAAGUGGCUGUGGCUGGUCUGCC [A12U A14U C18G A39G A41U], the self-cleavage stood at 0.04. The figure for GGCAGAGCUCAGCACAGCGUGGCAAAGUGGCUGUGUCUAGAUUGCC [A12G G36U C42U] is 0.04; for GGCAGAGCUCAGCACAGCGUGGCAAAGGGGCUGUGAGUAGACUGCU [A12G U28G G36A C37G C46U] it is 0.02. The figure for GGCAGAGCUCAGCACAGCGUGGCAAAGGGGAUGUGGGUAGACUGCC [A12G U28G C31A C37G] is 0.04; for GGCAGAGCUCAGCACAGCGUGGCAAAGUGGCUGUGGGUUGACUGCC [A12G C37G A39U] it is 0.14. The figure for GGCAGAGCUCAGCACAGCUUGGCCAAGUGGCUGUGGGUAGGCUGCC [A12G G19U A24C C37G A41G] is 0.01; for GGCAGAGCUCAGCACAGCGUGGCAAAGUGUCUUUGGUUAGACUGCC [A12G G30U G33U C37U] it is 0.46; for GGCAGAGCUCAGCACAACGUGGCAAAGUGGCUGUGGCUAAACUGCC [A12G G17A G40A] it is 0.02. Take GGCAGAGCUCAGCACAGCGUGGCAAAGGGGCUAUGGCUAGAUUGCC [A12G U28G G33A C42U]: the self-cleavage came to 0. As for GGCAGAGCUCAGCACAGCGUGUCAAAGUGGCUGGGGCUAGACUGCC [A12G G22U U34G], the self-cleavage is 0.05.

With GGCAGAGCUCAGCACAGCGUGGCAAAGUGGCUGGGGCUCGACUGCC [A12G U34G A39C], the self-cleavage was determined as 0.02. The figure for GGCAGAGCUCAGCACAGCGUGGCAAAGGGGCUGUCGCUAGACUGCC [A12G U28G G35C] is 0.02; for GGCAGAGCUCAGCACAGCGUGGCAAAGUGGCUGUGGAUAGCCUGCC [A12G C37A A41C] it is 0.01.

With GGCAGAGCUCAUCGCAGCGUGGCAAAGUGGCUCAGGCUAGACUGCC [A12U A14G G33C U34A], the self-cleavage was determined as 0.02. As to GGCAGAGCUCAGCACAGCCUGGAAAAGUGGCUCUGGCUGGACUGCC [A12G G19C C23A G33C A39G], the self-cleavage was determined as 0.01. GGCAGAGCUCAUCUUAGCGUGGCAAAGUGGCUGUGGCUAGACUGCC [A12U A14U C15U]: the self-cleavage was determined as 0.02. For GGCAGAGCUCAGCACAGCCUGGCAAAGUGGCUGUGGAUAAACUGCC [A12G G19C C37A G40A], the self-cleavage is 0. The figure for GGCAGAGCUCAGCACAGCGUGGCAAAGUGGCUGUUGAUAGACUGAC [A12G G35U C37A C45A] is 0.04; for GGCAGAGCUCAGCACAACGUGGAAAAAUGGCUGCGGCUAGACUUCC [A12G G17A C23A G27A U34C G44U] it is 0.01; for GGCAGAGCUCAGCACACCGAGGUACAGCGGCUCUGGCUAUACUGCC [A12G G17C U20A C23U A25C U28C G33C G40U] it is 0.05. Turning to GGCAGAGCUCAGCACACCGUGGCAAAGUGGCUGUGGCUAGAAUGCC [A12G G17C C42A], the self-cleavage was 0. With GGCAGAGCUCAUCUCAGCGUGGCAAAGUGGCUGGGGCUAGACUGCC [A12U A14U U34G], the self-cleavage is 0.13.

As for GGCAGAGCUCAGCACAUCGUGGCAAUGUGGCUGUGGCUAGACUGCC [A12G G17U A26U], the self-cleavage stood at 0.05. The figure for GGCAGAGCUCAGCACAGCGUCGCACAGUGGGUGUGGCUAGACUGCA [A12G G21C A25C C31G C46A] is 0.02. The figure for GGCAGAGCUCAGCACAGCGUGGCAAAUUGGGUGGGGCUAGUCUGCC [A12G G27U C31G U34G A41U] is 0.01; for GGCAGAGCUCAUCUCAGCGUGGCAAAGUGGCUGUGGCUAGCCUGCC [A12U A14U A41C] it is 0.05. With GGCAGAGCUCAUCGCGGCGUCGCAAAGUGGCUGUGGCUAGACUGCG [A12U A14G A16G G21C C46G], the self-cleavage came to 0.01. The figure for GGCAGAGCUCAGCACAGCGUGACAAAGUGGCUGUGGCUCGACUGCC [A12G G22A A39C] is 0.01; for GGCAGAGCUCAUCGCAGCGUGGCCAAGUGGCUGUGAUUAGACUUCC [A12U A14G A24C G36A C37U G44U] it is 0; for GGCAGAGCUCAGCACAGCCUGGCAAAGUAGCUGUGACUAGCCUGCC [A12G G19C G29A G36A A41C] it is 0.02. The figure for GGCAGAGCUCAGCACAGCGUGGCAAAGACGCUGUGGCUAGACUGCC [A12G U28A G29C] is 0.01; for GGCAGAGCUCAGCACAGCGUGUCAGAGUGGCUUUGGCUAGACCGCC [A12G G22U A25G G33U U43C] it is 0.01; for GGCAGAGCUCAUCACUGCGUGGCAAAGUGGUUGUGGCUAGACUGCC [A12U A16U C31U] it is 0.01. Turning to GGCAGAGCUCAUCACGGCGUGGCAAAGUGGCUGUAGCUAGUCCGCC [A12U A16G G35A A41U U43C], the self-cleavage is 0.08. For the variant GGCAGAGCUCAGCACAGCGUGGCAAAGUUGCUGUGGCUAAACUGUC [A12G G29U G40A C45U], the self-cleavage came out at 0.04.

For the variant GGCAGAGCUCAGCACAGCGGGGCUAAGUGGUCGUGGCUAGACUGCC [A12G U20G A24U C31U U32C], the self-cleavage was determined as 0.03. The figure for GGCAGAGCUCAGCACAGCCAGGCAAAGUGUCUGUGGCUAGACUGCC [A12G G19C U20A G30U] is 0.02; for GGCAGAGCUCAGCACAGCGCGGCAAACUGGCUGUGGCUAGACUGCC [A12G U20C G27C] it is 0.
